From paper PMC4336329 (PLoS ONE, 2015)
The campaign covered roughly 310,000 compounds. About 2,200 (0.71%) showed an effect of 50% or more. The effect is printed as a negative number. The list shows a part of the results.

What follows are compounds tested against human ether-à-go-go-related gene (hERG) potassium channel (human, UniProt Q12809) (assay: primary screen, population patch clamp on CHO cells stably expressing hERG).
Sequence of human ether-à-go-go-related gene (hERG) potassium channel (Q12809 whole entry, looked up): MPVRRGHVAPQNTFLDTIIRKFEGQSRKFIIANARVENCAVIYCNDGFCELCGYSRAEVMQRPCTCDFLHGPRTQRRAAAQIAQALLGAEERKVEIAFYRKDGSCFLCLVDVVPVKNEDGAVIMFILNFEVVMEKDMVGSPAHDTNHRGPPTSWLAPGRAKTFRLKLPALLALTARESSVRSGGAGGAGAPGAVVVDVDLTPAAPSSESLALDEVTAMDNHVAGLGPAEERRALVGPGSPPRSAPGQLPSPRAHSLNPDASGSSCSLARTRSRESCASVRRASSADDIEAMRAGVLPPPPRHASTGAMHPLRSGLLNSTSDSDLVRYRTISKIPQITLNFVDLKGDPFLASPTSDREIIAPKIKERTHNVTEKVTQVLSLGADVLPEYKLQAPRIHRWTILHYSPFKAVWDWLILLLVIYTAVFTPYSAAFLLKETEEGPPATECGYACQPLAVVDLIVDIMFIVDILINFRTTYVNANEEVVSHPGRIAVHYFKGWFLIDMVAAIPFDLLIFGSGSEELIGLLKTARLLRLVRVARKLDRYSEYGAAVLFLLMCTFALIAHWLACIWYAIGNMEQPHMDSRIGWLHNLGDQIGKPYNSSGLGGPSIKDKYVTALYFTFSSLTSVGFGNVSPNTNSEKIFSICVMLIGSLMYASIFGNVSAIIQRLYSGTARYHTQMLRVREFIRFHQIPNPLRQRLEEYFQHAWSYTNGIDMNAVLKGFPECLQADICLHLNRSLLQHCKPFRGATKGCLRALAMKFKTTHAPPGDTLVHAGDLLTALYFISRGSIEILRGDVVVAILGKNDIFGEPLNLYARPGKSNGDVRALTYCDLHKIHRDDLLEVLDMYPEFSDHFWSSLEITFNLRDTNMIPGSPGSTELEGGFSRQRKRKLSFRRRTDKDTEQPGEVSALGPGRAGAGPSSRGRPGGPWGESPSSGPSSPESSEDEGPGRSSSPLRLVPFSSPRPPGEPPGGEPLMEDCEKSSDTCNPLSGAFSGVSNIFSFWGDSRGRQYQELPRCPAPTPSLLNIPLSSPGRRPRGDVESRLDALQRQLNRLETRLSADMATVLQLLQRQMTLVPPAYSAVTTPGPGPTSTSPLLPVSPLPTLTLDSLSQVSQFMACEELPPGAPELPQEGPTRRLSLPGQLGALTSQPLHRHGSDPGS

| SMILES | hERG current change (%, negative = inhibition) at 1uM [%] |
| --- | --- |
| CCCN(C(=O)CCNC(=O)Cn1cnc2ccccc2c1=O)c1cccc(C)c1 | 15.3 |
| O=C(Cc1ccccc1)N1CCN(Cc2cccnc2)CC1.O=C(O)C(=O)O | 9.07 |
| Cc1cccc2sc(NC(=O)CSc3nc4ccccc4o3)nc12 | -0.695 |
| CC1(C)Oc2ccc3ccc(=O)oc3c2C[C@H]1O | 9.62 |
| O=C(CCn1ccnc1)Nc1ccc2ccccc2c1 | 8.61 |
| O=C(OCC(=O)N1CCN(C(=O)c2ccco2)CC1)C1=COCCO1 | 29.5 |
| Cc1cc(C)c2nc(/N=C(\N)NC(=O)c3ccccc3)nc(C)c2c1 | 0.931 |
| CC(C)Cn1c(SCC#N)nc2ccccc2c1=O | 11.6 |
| CCC(=O)c1coc2ccc(O)cc12 | 5.33 |
| CC(C)C(c1nnnn1C(C)(C)C)N1CCOCC1 (centres unmarked) | 4.7 |
| COc1ccc(Cc2nnc(NC(=O)Nc3ccc(F)cc3)s2)cc1 | 16 |
| COC(=O)[C@]12OC[C@]34C([C@@H](O)[C@@H]1O)[C@]1(C)CC(=O)C(O)=C(C)[C@@H]1C[C@H]3OC(=O)[C@H](O)[C@@H]24 (some centres unmarked) | 15.9 |
| Cc1ccc(N2CC(NS(=O)(=O)c3cc(F)ccc3F)CC2=O)cc1C (centres unmarked) | 13.6 |
| COc1ccc(/C(C)=N/Nc2ccc(C(=O)O)cc2)cc1OC.O=S(=O)(O)O | 11.7 |
| C=CCN1C(=O)CS/C1=N\S(=O)(=O)c1ccc(Cl)cc1 | 9.7 |
| CC(=O)Nc1ccc(NC(=O)c2ccc(COc3ccc4c(C)cc(=O)oc4c3)cc2)cc1 | 0.856 |
| O=C(CNC(=O)c1cccs1)c1ccc(Br)cc1 | 20.6 |
| CC(=O)c1c(COC(=O)c2ccccc2Cl)nc2ccccc2[n+]1[O-] | 6.61 |
| O=C(Nc1cccc(Cl)c1Cl)C1CCN(c2ncccn2)CC1 | 19.4 |

| SMILES | hERG current change (%, negative = inhibition) at 1uM [%] |
| --- | --- |
| COc1ccc(NC(=O)C2CCCN(S(=O)(=O)c3cccs3)C2)cc1OC (centres unmarked) | 14.3 |
| O=C(Nc1cccc2cccnc12)c1cccc(Cl)c1 | 14.7 |
| C[C@H]1CC[C@@]2(C)[C@@H](CC[C@@H]3[C@@H]2CC[C@]2(C)[C@@H](O)CC[C@@H]32)C1 | 10.2 |
| N#C/C(C(=O)N1CCOCC1)=c1/s/c(=C\c2ccccn2)c(=O)n1-c1ccccc1 | 12.8 |
| CCn1cc(/C=N\NC(=O)Cc2ccc(Cl)cc2)cn1 | -5.5 |
| CC(C)CC(=O)Nc1ccnn1C1CCN(C(=O)c2ccccc2F)CC1 | 16.7 |
| COc1ccc(-c2nc(CSCC(=O)NCc3ccc4c(c3)OCO4)c(C)o2)cc1 | 6.6 |
| COc1ccc(CCNC(=O)COC(=O)/C=C/c2cc(OC)c(OC)c(OC)c2)cc1OC | 13.5 |
| COc1ccc(N2CCN(C(=O)CSc3nnc(-c4ccc5[nH]c(C)c(C)c5c4)o3)CC2)cc1 | 13 |
| CCOc1ccc(S(=O)(=O)N2CCCCC2)cc1NC(=O)C1CCC1 | 5.47 |
| O=c1c2ccccc2c(-c2ccccc2)nn1-c1ccc(Cl)c(Cl)c1 | 18 |
| Cc1nn(C)c(C)c1S(=O)(=O)N(CC(=O)NCCN1CCOCC1)c1ccc(C(C)C)cc1 | 2.09 |
| COc1ccccc1CNC(=O)C1(C)Oc2cccnc2NC1=O (centres unmarked) | 6.96 |
| COc1ccc(C2=NN(CCC(=O)NC3CCCCCC3)C(=O)CC2)cc1 | 14.3 |
| Cl.NC(CC(=O)OC1CCCCC1)C(=O)OC1CCCCC1 (centres unmarked) | -5.16 |
| COc1ccc(C(c2nnnn2C2CCCC2)N2CCC(C)CC2)c(OC)c1 (centres unmarked) | 3.37 |
| CCOc1ccc(S(=O)(=O)NCc2ccc(OC)cc2)c2cccnc12 | -3.22 |
| COc1ccccc1CNC(=O)C1CCC(CNc2c(N3CCCCC3)c(=O)c2=O)CC1 (centres unmarked) | 5.75 |
| Cc1cc(C)c(S(=O)(=O)NCC2CCC(C(=O)NCc3ccc4c(c3)OCO4)CC2)c(C)c1 (centres unmarked) | 4.26 |

| SMILES | hERG current change (%, negative = inhibition) at 1uM [%] |
| --- | --- |
| O=C(/C=C/c1ccc(Cl)cc1)NC(=S)N1C[C@H]2C[C@H](C1)c1cccc(=O)n1C2 | -25.5 |
| COc1ccc(CN2CC(=O)N(c3ccccc3C)C2=S)cc1OC | 23.9 |
| COc1ccc(NC(=O)CSc2nnc(N)s2)c([N+](=O)[O-])c1 | 10.5 |
| CCn1c(SCC(=O)NC(=O)Nc2ccc3c(c2)OCCO3)nnc1-c1cccs1 | 4.07 |
| Cc1cccc(NCC(=O)N/N=C\c2ccccn2)c1 | 13.6 |
| Cc1ccc(S(=O)(=O)N(C)C(=O)NC(=O)NS(=O)(=O)c2ccccc2)cc1 | 6.01 |
| CC(=O)Nc1ccc(C(=O)CSc2nccc(=O)[nH]2)cc1 | 20.4 |
| COc1ccc(S(=O)(=O)Nc2ccc(N(C)C(C)=O)cc2)cc1 | 17.4 |
| CCN(CC)CCNC(=O)C12CC3CC(C)(CC(C)(C3)C1)C2.Cl | 3.57 |
| O=C(C1COc2ccccc2O1)N1CCN(c2ccccn2)CC1 (centres unmarked) | 1.96 |
| CC1=C(C)C(C)=C(C#N)C(=C(C#N)C#N)N1 | 13.1 |
| COc1cccc(/C=N/NC(=O)c2c(C)nc3ccc(Br)cn23)c1O | 12.5 |
| CSCC(=O)N1CCCC(CO)(Cc2ccccc2C)C1 (centres unmarked) | 7.65 |
| S=C1N(c2ccccc2)C(c2cccc3ccccc23)N2CCCN12 (centres unmarked) | 0.859 |
| Cc1cc(OCC(=O)Nc2ccccc2N2CCCC2)ccc1C(C)C | 9.93 |
| CCCNC(=O)c1ccc(CN2CCc3ccccc3C2)cc1 | -5.55 |
| COc1cccc(CNn2cnnc2)c1OCc1ccccc1F | 2.06 |
| CC(=O)Nc1cccc(-c2cnc3ccccc3n2)c1 | 1.37 |
